# Reference: PubChem BioAssay AID485294 (National Center for Advancing Translational Sciences (NCATS), 2010)
# Hit rate of the full screen: of about 370,000 compounds, about 150 (0.041%) were called active. Inconclusive means that the source gave no clear call. Such entries were picked first, then a sample of the others. Calls come from the whole dose curve; as a rule, active = well fitted inhibition curve with a large enough effect; inconclusive = small, poorly fitted or top-dose-only effect; inactive = flat fitted curve, though single readings scatter. No potency is given beside an inconclusive call; the fits are too rough.
# Biological target: Beta-lactamase (Escherichia coli (strain K12)) (UniProt P00811)
# Test: qHTS Inhibitors of AmpC Beta-Lactamase (assay with detergent); note: nearly all actives have a fitted effect of over 25% in size
# Settings: AmpC hydrolysis of nitrocefin, absorbance 480 nm, 0.01% Triton; series mostly up to 114 µM
# How it was run: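 20 mM phosphate pH 7.0 + 0.01% (detergent screen) or 0.0001% Triton X-100; 5.3 nM AmpC reagent; cpd preinc 15 min RT; nitrocefin (800 uM stock) to start; A480 q20 s × 4 min; Activity was normalised to no-enzyme and no-compound control wells.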
# Potency is the fitted concentration of half-maximal effect; tags give direction and shape of the fitted curve.
# UniProt P00811, sequence (P00811 whole entry, looked up): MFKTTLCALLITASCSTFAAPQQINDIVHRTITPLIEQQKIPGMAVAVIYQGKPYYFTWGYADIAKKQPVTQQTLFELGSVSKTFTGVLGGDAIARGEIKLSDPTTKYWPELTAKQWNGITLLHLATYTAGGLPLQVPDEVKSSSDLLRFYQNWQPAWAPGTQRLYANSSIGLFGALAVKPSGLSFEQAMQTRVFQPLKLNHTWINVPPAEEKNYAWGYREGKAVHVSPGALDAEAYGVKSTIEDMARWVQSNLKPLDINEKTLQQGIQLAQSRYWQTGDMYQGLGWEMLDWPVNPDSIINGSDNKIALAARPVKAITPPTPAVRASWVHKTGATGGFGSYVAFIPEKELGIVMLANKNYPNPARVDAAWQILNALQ
row,SMILES,Potency
1,Cc1cccc(CCNC(=O)COc2cc(=O)n(C)c3ccccc23)c1,"inconclusive [inhibitor, full curve, poor fit]"
2,O=c1[nH]c2ccccc2c2oc(CCl)nc12,inactive
3,COc1cc(C(=O)N2CCCc3ccccc32)c([N+](=O)[O-])cc1OC,"inconclusive [inhibitor, partial curve, poor fit]"
4,CCCCS(=O)(=O)N1CCC(C(=O)NCC2CCCO2)CC1 (centres undefined),"inconclusive [inhibitor, full curve]"
5,COc1cc(/C=C/C(=O)OCC(=O)N2CCC(Cc3ccccc3)CC2)ccc1O,"inconclusive [inhibitor, full curve, poor fit]"
6,COc1cccc(NC2c3ccccc3C(=O)N2Cc2ccco2)c1 (centres undefined),inactive
7,O=C(CCCCn1c(=O)c2ccccc2n(Cc2cccc(Cl)c2)c1=O)NCc1ccc2c(c1)OCO2,inactive
8,COc1ccc(NC(=O)COC(=O)CCCOc2ccc(Cl)cc2Cl)cc1Cl,"inconclusive [inhibitor, full curve, poor fit]"
9,Cc1ccsc1CNC12CC3CC(CC(C3)C1)C2,inactive
10,O=C(Nc1ccc2c(c1)CCC2)C1CCCO1 (centres undefined),inactive
11,c1ccc(Cn2nnc3c(N4CCOCC4)ncnc32)cc1,"inconclusive [inhibitor, full curve, poor fit]"
12,COc1cc2c3nnc(-c4ccc(F)cc4)c-3cn(Cc3ccc(C)cc3)c2cc1OC,"inconclusive [inhibitor, full curve]"
13,CC(C)n1c(-c2ccco2)csc1=Nc1cccnc1,"inconclusive [inhibitor, full curve]"
14,CCOc1ccc(CNC(=O)C2CCN(S(=O)(=O)N3CCCC3)CC2)cc1OC,"inconclusive [inhibitor, single point]"
15,Cc1ccc(OCc2cc(C(=O)NC3CCCCC3)no2)cn1,inactive
16,CN(C)S(=O)(=O)c1cccc(NC(=S)Nc2cc(Cl)cc(Cl)c2)c1,"inconclusive [inhibitor, full curve, poor fit]"
17,NC(=O)CC(NC(=O)c1ccc(Cl)cc1)C(=O)NCCc1ccc(S(N)(=O)=O)cc1 (centres undefined),"inconclusive [inhibitor, partial curve, poor fit]"
18,CC(=O)OCC(=O)C1=CCC2C3CCC4=CC(=O)C=CC4(C)C3(F)C(OC(C)=O)CC12C (centres undefined),"inconclusive [inhibitor, single point]"
19,CCOC(=O)c1cccc(NC(=O)CN2CCN(c3ccc(OC)cc3)CC2)c1,"inconclusive [inhibitor, full curve, poor fit]"
